Reference: paper PMC4336329 (PLoS ONE, 2015)
Out of some 310,000 compounds screened, about 2,200 (0.71%) showed an effect of 50% or more. The effect is printed as a negative number. The list shows a part of the results.

Target: human ether-à-go-go-related gene (hERG) potassium channel (human, UniProt Q12809)
Test: primary screen, population patch clamp on CHO cells stably expressing hERG

Chain of human ether-à-go-go-related gene (hERG) potassium channel (Q12809 whole entry, looked up): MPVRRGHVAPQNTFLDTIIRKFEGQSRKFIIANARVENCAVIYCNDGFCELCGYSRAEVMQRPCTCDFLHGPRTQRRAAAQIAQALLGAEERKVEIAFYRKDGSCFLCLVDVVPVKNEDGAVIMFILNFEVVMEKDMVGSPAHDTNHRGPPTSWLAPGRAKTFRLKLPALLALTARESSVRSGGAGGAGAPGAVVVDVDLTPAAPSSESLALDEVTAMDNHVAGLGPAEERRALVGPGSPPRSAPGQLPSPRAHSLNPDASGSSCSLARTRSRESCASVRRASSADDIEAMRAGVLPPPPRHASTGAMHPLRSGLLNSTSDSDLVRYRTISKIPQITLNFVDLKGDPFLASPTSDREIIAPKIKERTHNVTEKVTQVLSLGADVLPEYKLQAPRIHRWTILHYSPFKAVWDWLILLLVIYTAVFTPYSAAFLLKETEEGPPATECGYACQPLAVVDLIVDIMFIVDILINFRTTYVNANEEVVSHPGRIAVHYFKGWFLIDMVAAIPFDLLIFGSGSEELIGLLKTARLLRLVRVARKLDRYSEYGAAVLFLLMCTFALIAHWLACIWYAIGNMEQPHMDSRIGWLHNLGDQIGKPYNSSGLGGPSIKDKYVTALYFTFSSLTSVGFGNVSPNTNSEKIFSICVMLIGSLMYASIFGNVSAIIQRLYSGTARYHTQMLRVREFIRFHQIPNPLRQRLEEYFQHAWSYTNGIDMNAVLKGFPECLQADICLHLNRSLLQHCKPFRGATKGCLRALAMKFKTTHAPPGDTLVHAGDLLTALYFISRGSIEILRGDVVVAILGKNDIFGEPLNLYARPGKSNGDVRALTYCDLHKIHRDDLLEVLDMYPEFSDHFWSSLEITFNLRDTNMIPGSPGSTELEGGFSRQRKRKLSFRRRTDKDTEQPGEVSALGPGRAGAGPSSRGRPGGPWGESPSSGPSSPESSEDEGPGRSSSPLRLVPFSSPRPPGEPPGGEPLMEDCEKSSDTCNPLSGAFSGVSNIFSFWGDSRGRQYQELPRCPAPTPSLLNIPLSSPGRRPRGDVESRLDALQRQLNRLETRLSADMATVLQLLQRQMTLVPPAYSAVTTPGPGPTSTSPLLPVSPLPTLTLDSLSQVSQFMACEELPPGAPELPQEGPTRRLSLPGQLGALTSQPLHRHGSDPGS

Structure (SMILES)	hERG current change (%, negative = inhibition) at 1uM [%]
Cc1ccc(NC(=O)CN(C)C(=O)c2ccc3[nH]c4c(c3c2)CC(C)CC4)cc1 (stereo not drawn)	9.18
CN(CC(=O)Nc1ccc(N2CCOCC2)cc1)C(=O)CSc1ccc(F)cc1	8.04
Cc1ccc(NC(=O)Cn2nnc(C(=O)NCc3cccs3)c2N)cc1Cl	15.4
Cc1c(NC(=O)Nc2ccc(Cl)cc2)c(=O)n(-c2ccccc2)n1C	11
O=C(NCCCNC(=O)c1ccccc1Br)c1ccccc1Br	17.5
CCCCOc1ccc(C(=O)NNC(=O)C2C3C=CC(C3)C2C(=O)O)cc1 (stereo not drawn)	11.1
O=C(CCn1c(=O)[nH]c2ccccc2c1=O)NCCSCc1ccccc1	4.23
Cc1cc(NC(=O)OC2CCCCC2)ccc1[N+](=O)[O-]	13
O=C(NC1CCCC1)c1cc2c(=O)n3ccccc3nc2s1	3.54
CCN(CC)C(=O)Cn1c(=O)n(CCCC(=O)NCc2ccccc2)c(=O)c2sccc21	9.92
CCOC(=O)Cc1c(C)nc2c(-c3cccc(Br)c3)c[nH]n2c1=O	2.95
CC1=CCC2C(=O)N(c3cccc(C(=O)N(C)C4CCCCC4)c3)C(=O)C2C1 (stereo not drawn)	3.45
COC(=O)c1cccc(NC(=O)CN2CCN(Cc3ccccc3)CC2)c1	-4.12
COc1cc(OC)cc(C(=O)NCC(=O)N2CCC(C)CC2)c1	18
COc1ccc(C2=NN(C(=O)CSc3nnc(-c4ccccc4F)o3)C(c3ccco3)C2)cc1 (stereo not drawn)	12.2
Cc1nnsc1C(=O)N1CCC(CO)(Cc2ccccc2Cl)CC1	9.14
CCc1ccc(C2CC(c3ccc(C)cc3)Nc3nc(N)nn32)cc1 (stereo not drawn)	8.52
CC1CC(C)CN(CCOc2ccc(Br)cc2)C1.O=C(O)C(=O)O (stereo not drawn)	-12.4
COc1ccc(CN2CCCC(C(=O)c3ccc(SC)cc3)C2)cc1Cn1cccn1 (stereo not drawn)	-68.5
CCOc1ccc(N=CC2=C(O)CC(c3ccco3)CC2=O)cc1 (stereo not drawn)	9.85
CC(C)CCNC(=O)COC(=O)/C=C/c1ccc2ccccc2n1	9.63
CC1(C)C(Cl)C(=O)C(C(=O)c2ccccc2)C(=O)C1Cl (stereo not drawn)	11.6
CCCC(=O)c1c[nH]c(C(=O)NCc2ccco2)c1	10

Structure (SMILES)	hERG current change (%, negative = inhibition) at 1uM [%]
Cc1ccc(C)n1-c1nc(=S)[nH][nH]1	12.5
Nc1nonc1-n1nnc(C(=O)N/N=C/c2cccc(Cl)c2)c1-c1cccs1	5.76
O=C(NCc1ccccc1)c1ccc(S(=O)(=O)Nc2cccc(C(F)(F)F)c2)cc1	10.6
CCC(=O)Nc1ccc(-c2cc3ccccc3oc2=O)cc1	14.3
COc1ccc(C(C)=O)cc1CN1C(=O)NC2(CCCC2)C1=O	2.23
COC(=O)C1=C(C)NC=C([N+](=O)[O-])C1c1ccc(OC)cc1 (stereo not drawn)	-2.34
COc1ccc(C2OC(=O)CC2C(=O)NC(C)C)cc1 (stereo not drawn)	11.5
O=C(COc1ccc(Br)cc1)NCCO	15.1
COC(=O)CSc1cc(C(=O)c2nccn2C)c2ccccc2n1	9.32
CCOCCCn1c(SCC(=O)N2CCOCC2)nc2ccccc2c1=O	-13
C/C(=N/Nc1ccc(C)cc1)C1(C)N(O)C(C)(C)C(c2ccco2)=[N+]1[O-] (stereo not drawn)	2.95
O=c1c2c(nc3n1CCCCC3)sc1c(O)cccc12	-2.34
CCOC(=O)N1CCN(C(=O)CSC2=NS(=O)(=O)c3cc(F)ccc3N2)CC1	6.8
Cc1ccc(NS(=O)(=O)c2cccc(C(=O)NCCCN3CCCC3=O)c2)cc1	10.9
C/C=C1\COC(C(=O)NCc2ccncc2)(C(F)(F)F)C=C1C=C1CCCCC1 (stereo not drawn)	12.8
CCn1c(=NC(=O)CS(=O)(=O)c2ccc(F)cc2)sc2cccc(OC)c21	7.26
CCCCn1c(N)c(N(CCC(C)C)C(=O)CSc2nncn2-c2ccccc2)c(=O)[nH]c1=O	12.2
c1cncc(COC2CCCN(Cc3nc(-c4cccs4)no3)C2)c1 (stereo not drawn)	15.7
COC(=O)C(CC(=O)c1ccc(Cl)cc1)c1ccc(C)cc1 (stereo not drawn)	12.7
CN(C)CCN(Cc1ccco1)S(=O)(=O)c1csc(C(N)=O)c1	16.9
COC(=O)c1ccccc1NC(=O)Cn1c(=O)n(CCC(=O)NC2CCN(Cc3ccccc3)CC2)c(=O)c2ccccc21	1.13
N/C(=N\OC(=O)c1cc([N+](=O)[O-])ccc1Cl)c1ccccn1	15.2
CN(C(=O)COc1ccccc1C(=O)NCCc1ccccc1)c1ccccc1	4.39

Structure (SMILES)	hERG current change (%, negative = inhibition) at 1uM [%]
COc1ccc(NC(=O)N(Cc2cc3ccc(OC)cc3[nH]c2=O)CC2CCCO2)cc1 (stereo not drawn)	-10.1
CCOC(=O)N1CCN(C(=O)CNC2CCCCCCC2)CC1.O=C(O)C(=O)O	18.3
Cc1cccc(C)c1NC(=O)CSc1nc(-c2ccco2)cc(C(F)(F)F)n1	3.71
C=CCn1c(COc2ccc(Cl)cc2)nnc1SCC(=O)N/N=C/c1cccc(O)c1	4.13
CC1(OC(=O)c2cccs2)C(=O)C=C2C=C3CCCN3C=C2C1=O (stereo not drawn)	14.9
Nc1nonc1-n1nnc(C(=O)N/N=C/c2cccnc2)c1-c1ccccc1	9.49
CCOC(=O)C(CCCOc1cccc(OC)c1)C(=O)OCC	-9.15
Fc1cccc(Cl)c1CSc1nnc(CN2CCOCC2)n1-c1ccccc1	13.4
COc1ccccc1N(CC(=O)NCc1ccc(F)cc1)C(=O)CCC(=O)Nc1ccccn1	6.44
CC(C)(C)c1ccc(/C=C/C(=O)N2CCc3ccccc3C2)cc1	11
O=C(CNC(=O)c1ccccc1)OCc1ccc([N+](=O)[O-])cc1	2.81
COC(=O)c1ccc(NC(=O)c2cccc(NC(=O)c3ccco3)c2)cc1	5.26
CC(C)(C)CC(=O)Nc1cc2c3c(c1)CCN3C(=O)CC2	4.67
CCOCCc1nnc(NC(=O)c2cccc(F)c2)s1	7.75
CCCS(=O)(=O)NCCc1cc2cc(C)c(C)cc2[nH]c1=O	2.88
CNC(C)C#Cc1ccc2sc3cccc(OC)c3c(=O)c2c1 (stereo not drawn)	12.5
CCCN1C(=O)/C(=C/c2ccc(C)s2)SC1=Nc1ccc(OC)cc1	7.6
Cc1c(C(=O)Nc2ccccc2C(=O)N2CCCC2)cccc1[N+](=O)[O-]	14.9
Cl.c1ccc2c(c1)oc1c(NCCCN3CCOCC3)ncnc12	0.229
CC(C)Oc1cc(NC(=O)CSCC(=O)Nc2cccc(C(F)(F)F)c2)c(Cl)cc1Cl	9.83
CCCc1nnc(NC(=O)CCC(=O)N2CCN(c3ccccn3)CC2)s1	-6.55
COc1ccc(-c2coc3cc(OC4OC(CO)C(O)C(O)C4O)cc(O)c3c2=O)cc1 (stereo not drawn)	7.95
CCCCCCOC(=O)C1=C(C)NC(=O)NC1c1ccc2c(c1)OCO2 (stereo not drawn)	2.22

Structure (SMILES)	hERG current change (%, negative = inhibition) at 1uM [%]
O=S(=O)(N/N=C1\CCCc2ccccc21)c1ccccc1	5.16
Cc1cc(C)nc(NS(=O)(=O)c2ccccc2)n1	12.5
O=C(OCC(=O)N1CCCC1)c1c2c(nc3ccccc13)CCCCC2	9.48
COC(=O)CNC(=O)C(Cc1ccccc1)NS(=O)(=O)c1ccc2c(c1)c(=O)n(C)c(=O)n2C (stereo not drawn)	9.49
COc1ccc(CCNC/C=C/c2ccccc2)cc1.Cl	-5.16
O=c1cc(CN2CCN(Cc3ccc(F)cc3)C(CCO)C2)[nH]c2ccccc12 (stereo not drawn)	-15.5
CCOc1c2ccccc2nn1CCOC	8.94
Cc1ccccc1OCCC(=O)NCCc1ccc(S(N)(=O)=O)cc1	14.6
CCOC(=O)c1sc(=S)n(-c2ccccc2Cl)c1C	13.1
Cc1cccc(NC(=O)CNCC(=O)Nc2cccc(C)c2C)c1C.Cl	4.83
COc1ccc2[nH]cc(CCNC(=O)C3CCCNC3=O)c2c1 (stereo not drawn)	10.6
Cc1cc(O)ccc1N/C=C1\CCCC1=O	13
Cc1ccc(N(CC(=O)NCc2ccco2)C(=O)CCC(=O)Nc2ccccn2)c(C)c1	8.23
NC(=O)CS(=O)(=O)c1ccc(Cl)cc1	18.9
CCC(C)(C(=O)NC1CCCC1)N(C(=O)CNC(C)=O)c1ccc(C)cc1 (stereo not drawn)	9.08
O=C(C1CCCN1S(=O)(=O)c1ccc(Cl)cc1)N1CCCCC1 (stereo not drawn)	5.42
CCCN(CCC)C(=O)CCSCCC(=O)N(CCC)CCC	10.6
CC(C)C(OC(=O)CN1C(=O)COc2ccccc21)C(=O)NC1CCCC1 (stereo not drawn)	15.9
COc1ccc(Cl)cc1S(=O)(=O)NCCCn1ccnc1	15.8
c1ccc(CNc2nc(N3CCOCC3)nc(N3CCOCC3)n2)cc1	3.44
CN1CCc2c(sc3nc(SCC(=O)N4CCOCC4)n(-c4ccc(Cl)cc4)c(=O)c23)C1	13.5
